The supplement of paper PMC12632987
In all, about 4,500 sequences were measured (“median log2 fold change of GCK-ALFA target abundance (FLAG IP / Myc IP barcode read proportion)”: median about 0.078, lowest 2% from about -0.6 on). The list shows a part of the results.

B1: GBRAP_122_2941 (protein)
chain: SELRAEIEALIDGIVAALAAGDEEELDALAERLVKLFGKVSPEEARAAVERLLARLAGDPEARERALRALLKAFYKLEPQNAAQEAAADVVAEEFDKLSE
B2: GBRAP_160_4111 (protein)
chain: NEELKKFAEENAEDLKETIEIIEDLSNEEAGVLALVTIGEALIDASEYDEKFEELEKLAEELEKKIRETAEKDPENLKEVSLEALKELREAFEKKAKELK
B3: GBRAP_11_2710 (protein)
chain: RKETLKELAERAEELAREIERLIKEGPTKEEIKRLLERVRELLEEARKAGLPQSVLDLLEIAAESLEKAIEDPENVEQYLREALAALRVLAGQLLLLAEE
B4: GBRAP_52_6031 (protein)
chain: SRERMRALARELIDLVLAGRDDEARALAEELVATLSEEELRLLGEELARLTREAAPEDLDAYMRAAEIVADALEAAGYDEVLADDLLARVAAAAVENLAR
B5: GBRAP_95_7058 (protein)
chain: DEDVEIAEALFDTAVDLAEAGFDEQAAKAVAALADQILELGGNKVDAKVDPETALKLARIAAATLDPERARAVTDLLGAAVGDPETAARLRAILAAAEAA
B6: GBRAP_52_6169 (protein)
chain: SAAEAARLADEILAAVRAGDEERVAALLERIAATLSDEEIAATLAAIAERVPSLSPEDQERVVEVALRLEDVAEAAGHDPEVLDYEVARVAAAAYAALQA
B7: GBRAP_128_3163 (protein)
chain: SMEEVKKETEKLMEEFINSSLEEAKKIAEEIFEKFKEVNDEEREVMTEVVLKNLPKLSVEKLDILADVFRERRPELDEYGQELVNEIIVEALNVAEEKEE
B8: GBRAP_11_2746 (protein)
chain: MKEKLKEIEKLAEKLAETLQKLIEKGVDDKELLEEAEKLLKELEELVKKYGDESLKKLAKIAKEDFEKAKKDPANALLYLKNALAAARVLAGQVKLEIEE
B9: GBRAP_128_3185 (protein)
chain: SVEEVREETRRAAEEIKNSDKEEARKIARELFERLLGLSLEEAEAAVEVLEEMLPEFSEEKLEIIAEVAREVRPKADPEKARLIAGLEVEALNRIEELEE
B10: GBRAP_52_6316 (protein)
chain: MREEAERLAEELVELVKEGKREEARKLAKEIAENKSLEFLELLAEVLAERILEADEETADALLEAAEILAEALIEAGHDEAVASDFLAAAARAAYERELR
B11: GBRAP_160_4087 (protein)
chain: SAEAKALIARVREIFDEAIEMMEDVSREEAVAIALVALGEVALEIEEAEFLSEEDKEKLLALVDEGEERIRAAADASVEEIIALLREFEERIVAAIEEAA
B12: GBRAP_160_4100 (protein)
chain: SEKTEKLIKEIEELAKEAKEMIEGESIEQRATIVRGFGGEVIMLLMSSGEVSDETVDFADEVFDEVVDTILANPDLTLEEIKELIDEAVEKVKKKIKEDA
B13: GBRAP_95_7033 (protein)
chain: EDDKLALESAIEVAVAAAELGDDDAAARALREALELLKKAGKVELDEELLKEAIDVIERVGVKKLPREDVLELLELLLEAAETEEVKELAEKAIERVKKR
B14: GBRAP_160_4337 (protein)
chain: SENTEKLIKFIKEEFEETLELIEGLSFEERKVLIEGTFGVILMELSEDESISDETEDKIDEIFDETLATLDANPDLSLEEIKELILETKEKIIKIIKESD
B15: GBRAP_52_6129 (protein)
chain: MEEEARRLVEELLELVRAGREEEARELARRIVEEKDDEFLKLVADELARRAKEASPEEQELIERAAEILAEEIREAGRDEVLADYVESRIAAALYEAEQA
B16: GBRAP_9_7154 (protein)
chain: MEELLKKVKEVIEDAFEEISKVVPEEVKPLVEELRKKAEERFEKLAKDPNVTKEEIVKEAKEILKELEEEISKKVSPEIKKIVRAIVLTAELEIEEIAEE
B17: GBRAP_160_4531 (protein)
chain: EEFLKKAEELIEEAAEEAIELVKGETVEQRIVIIEMEFGAVAMELAEDERASDEMVDVVLDERDKLVATLRANPDLTDEEIAALIEEMRDRIIEKLRELY
B18: GBRAP_43_5774 (protein)
chain: SKELVDGAADFALLAAESPEIPEDQKVKAIKAFFDLAADEGYLDEEKMKAVIDAAGKSLSAEALKEVLAHLKELAAKNPKLAEKLKAAAKRVEAAIKAKE
B19: GBRAP_83_6960 (protein)
chain: MITVVASSKKESIKSAVEAAIDLHLEEGIEVELEIFVTKENVETVVEELKKAIKAGVNVEVTLIGKESIKEELEKAKEEIEKAAKEYGVNVKVEVIVEEE
B20: GBRAP_9_7146 (protein)
chain: MEEMVEKIREVMEDAFEEVREIVPEEVKPLVDELREEALKRFEEVVADKSKTKEEIREAAKELIEEFTERVSEKVSPEIAKMVEAIGLTAKLEIEEIYEE
B21: GBRAP_139_3712 (protein)
chain: TPPEELVARARAIVAAHRDDLERLARLLAELMASADDETALAIARAAAEELADFSWEQWERLIELVEEELRKLGMDEDRVLAIAGEMEAVFAQHELAKEA
B22: GBRAP_48_5827 (protein)
chain: ATPPLEKLEELVRETVEEMKEVYEEAKKEGLSREEILRMIKALLGDLALELEEAGFEKAAEFLRDPENREELAEKLLELFDEGKYEEAYKYLLEKLREAE
B23: GBRAP_128_3525 (protein)
chain: SVEEARKRAEEVVEKIKNSTVEEAREITREFLEWLLGLSLEEVEAAAEVLEENLPKLSAEKLDAVADAIRENLGRFSPEKQRELLGVEVAALNEAEEKEE
B24: GBRAP_128_3586 (protein)
chain: SVEAVRAETRALMAAMKTADDATAKALATELAARFTTLSLEEAEAAAEVIEEELPGLSAEHLDILADALRAALPAMTPEKAELAADVLVAALNEAEEKDE
B25: GBRAP_35_5569 (protein)
chain: STDETIVEMTVNTIEALTLAVPDLDPATLETITRQVVALAREVIEDIKNNLEGLKRILEALRALLAAIRARGLDDPHLQAAAAAVEEAIRLAEKAIKEAE
B26: GBRAP_160_4005 (protein)
chain: SAEIEALIKEIEELVKETKEWMKGLSPEERLTLARGMVGEIIQLAIDSPAVSDETEDKIAEIGDETIARLEANANASLEVWEKILDDYLEKVKELLKSDE
B27: GBRAP_128_3453 (protein)
chain: SVEELRKKAEEIMEKIINSSLEEVPALAEELVDLIASSDLEGAEAIAEVVEEKLPKLSEEKLGILIDVLVARRPELSPEKAAVALEIAVAAGEEALEKME
B28: GBRAP_95_7083 (protein)
chain: SEDLEIAEDLMYTAVDLYDAGLKEQAARAIKAALDELEELGYKVEDKELLEKLLRYAVELALEHFDAEEVERMLKIAEKSGAPQEIIDALKEVLAKLKAA
B29: GBRAP_125_3098 (protein)
chain: SREELLEALRRIALALGFSEEDAEELARLAAEGSLRQTLVALFLAEGYEEVADLVAQLTEEQAAELVRRLAEYLEAHPDLTKEEVVEKAKELAEELLAEA

These binders were tested against GABARAP, O95166 (assay: median log2 fold change of GCK-ALFA target abundance (FLAG IP / Myc IP barcode read proportion) (log2 ratio); each designed protein is fused to an ALFA-tag nanobody in HEK293 cells to bring the named protein to FLAG-tagged glucokinase (GCK); Myc marks an untargeted standard; higher = target protein stabilised (more abundant)). Settings: target protein: 3xFLAG-MCP-GCK-ALFA reporter; HEK293 landing pad (RPLP).
GABARAP, O95166, sequence (O95166 whole entry, the tested form may be a part): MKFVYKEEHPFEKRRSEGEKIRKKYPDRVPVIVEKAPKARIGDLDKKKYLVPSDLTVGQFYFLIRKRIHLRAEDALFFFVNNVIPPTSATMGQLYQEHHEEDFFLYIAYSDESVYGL
Method in brief: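 The readout is target abundance, the per-binder median log2 ratio of FLAG to Myc barcode read proportions. It came from HEK293 landing-pad cells carrying a recombined ALFA-nanobody-fused binder library, induced with 2 μg mL^−1 doxycycline and transfected with a plasmid for a FLAG-tagged target and a Myc-tagged standard. After 48 h, lysates were immunoprecipitated with anti-FLAG and anti-Myc, and circular RNA barcodes were reverse transcribed, amplified and sequenced. Each barcode needed a proportion of at least 10^−7 in both replicates and each binder at least 3 barcodes per replicate, a pseudocount of 10^−6 was added, and the replicates were pooled.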

Binder	median log2 fold change
B1	0.269
B2	-0.204
B3	-0.051
B4	-0.202
B5	-0.412
B6	-0.236
B7	0.0674
B8	0.229
B9	0.318
B10	0.0705
B11	0.0122
B12	-0.177
B13	0.148
B14	-0.0423
B15	0.192
B16	0.173
B17	0.116
B18	0.315
B19	0.267
B20	0.209
B21	0.189
B22	0.199
B23	0.0693
B24	0.296
B25	-0.994
B26	0.201
B27	-0.0866
B28	0.184
B29	-0.000994
